Here are results for 86 sequences from the supplement of paper PMC3334620.

Over roughly 33,000 sequences, “E-score (-0.5 to 0.5)” has its median near -0.056; the highest 2% begin near 0.38. Some of the results follow.

The assay concerns the target Stb4 (UniProt P50104). The assay is described as follows: PBM E-score (8-mer binding enrichment) (E-score (-0.5 to 0.5)); higher = stronger / more preferred TF binding; most listed sequences are background and not binding sites. The following applies: protein concentration: 200 nM; construct: GST-DNA-binding domain. Here is the method: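 Universal 'all 10-mer' protein binding microarrays (Agilent AMADID 015681) probed with GST-tagged S. cerevisiae TFs (full-length or DBD) made by in vitro transcription/translation (PURExpress), about 100-200 nM. Bound TF was detected with fluorescent anti-GST. Each ungapped 8-mer (which stands for itself and its reverse complement) is scored by the PBM enrichment score (E-score), a modified Wilcoxon-Mann-Whitney statistic from -0.5 to +0.5, computed with the Universal PBM Analysis Suite. Scale: above 0.35 generally sequence-specific binding.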
Take GCATTCGA: the “PBM E-score” value was -0.089.

As for CAGCAAAA, the “PBM E-score” value is -0.203.

As for CCCCCGCG, the “PBM E-score” value came to 0.0742.

For the sequence TCGTCTCA, the “PBM E-score” value is -0.0896.

Take CTCTTACC: the “PBM E-score” value amounted to 0.0253.

Turning to CACCAACG, the “PBM E-score” value is -0.0265.

Take AAAGCTAC: the “PBM E-score” value was -0.176.

With CTCCTCTA, the “PBM E-score” value is -0.232.

Regarding CTTGCCCA, the “PBM E-score” value is -0.187.

Consider GACGGAAA, for which the “PBM E-score” value turned out to be 0.36.

As for ACACGGGG, the “PBM E-score” value turned out to be 0.0501.

For AGGAAACC, the “PBM E-score” value amounted to 0.0293.

AGTCAGTG: the “PBM E-score” value was -0.175.

For AGCAGCCT, the “PBM E-score” value was -0.222.

Regarding AAATTTCG, the “PBM E-score” value came out at 0.0822.

Take GGGTAAAA: the “PBM E-score” value was 0.233.

For the sequence CCGTAAAA, the “PBM E-score” value amounted to 0.126.

On to CAGTCGTA, for which the “PBM E-score” value came to 0.122.

As for GAAGTACC, the “PBM E-score” value was 0.182.

For the sequence GTCTCGCA, the “PBM E-score” value was -0.135.

Consider GGCCCCCC, for which the “PBM E-score” value was 0.00643.

Take GAAATAGA: the “PBM E-score” value is -0.00249.

Take AAAGTACC: the “PBM E-score” value was 0.183.

Consider TATAGAAA, for which the “PBM E-score” value was -0.0801.

On to AGACCGTC, for which the “PBM E-score” value was -0.0308.

For CCTCCGCG, the “PBM E-score” value came out at 0.159.

Turning to ACATAGGC, the “PBM E-score” value was -0.044.

For the sequence ATAGCCAC, the “PBM E-score” value is -0.13.

As to CCGATGTA, the “PBM E-score” value worked out at 0.265.

Take CTTCTACC: the “PBM E-score” value was -0.0346.

In the case of CTGCGGGC, the “PBM E-score” value was found to be 0.0439.

As to CTGCGGCC, the “PBM E-score” value was found to be 0.0939.

For the sequence GTTCGCAA, the “PBM E-score” value is -0.0829.

Consider ACTATAGT, for which the “PBM E-score” value came out at 1e-05.

As to AATATCAG, the “PBM E-score” value is -0.18.

In the case of CTTAAAAC, the “PBM E-score” value was -0.12.

On to CATTAAAG, for which the “PBM E-score” value was -0.237.

For the sequence CGCTAGAC, the “PBM E-score” value is -0.2.

CGCCGGCG: the “PBM E-score” value stood at 0.294.

As for ACAACACC, the “PBM E-score” value is -0.121.

Turning to AATCGGGT, the “PBM E-score” value is 0.325.

With GGTTTACA, the “PBM E-score” value amounted to 0.148.

On to AAGGCCTG, for which the “PBM E-score” value is -0.189.

AGCGGGGC: the “PBM E-score” value is -0.03.

Regarding AGCGAATG, the “PBM E-score” value is -0.259.

As for ACCATACG, the “PBM E-score” value was -0.00752.

As for ATTAGCTG, the “PBM E-score” value was -0.197.

In the case of AAACATGC, the “PBM E-score” value is 0.0147.

Take AGTAACGC: the “PBM E-score” value is -0.172.

For the sequence CCATAAGA, the “PBM E-score” value is -0.0982.

Regarding CTCATGAG, the “PBM E-score” value is -0.291.

Regarding GAACTAGC, the “PBM E-score” value turned out to be 0.0711.

As to GCTTCAGA, the “PBM E-score” value is -0.159.

As for ATCCAAAA, the “PBM E-score” value was -0.0737.

In the case of ATCGAAAA, the “PBM E-score” value is -0.138.

As for CAGAAACG, the “PBM E-score” value was -0.0234.

For GCGTCACC, the “PBM E-score” value is -0.145.

Take AACCTTCC: the “PBM E-score” value is 0.21.

As to CTGAAATA, the “PBM E-score” value is -0.087.

Take TAATTACA: the “PBM E-score” value was -0.136.

On to AAAGTTTA, for which the “PBM E-score” value amounted to 0.0426.

Consider GATGAAAC, for which the “PBM E-score” value is -0.0811.

On to CGGGCGCA, for which the “PBM E-score” value stood at 0.191.

Take CTTTTCTA: the “PBM E-score” value was -0.111.

Take AGGTGGAT: the “PBM E-score” value is -0.184.

Take ACGATGAT: the “PBM E-score” value was -0.0605.

Take ATCAGTTA: the “PBM E-score” value stood at 0.0232.

Consider TAGACTGA, for which the “PBM E-score” value is -0.17.

As to CTTCTAAA, the “PBM E-score” value is -0.12.

Regarding CGATCCAG, the “PBM E-score” value was -0.0547.

As for GTTCGGCA, the “PBM E-score” value was found to be 0.418.

For GGGTACTA, the “PBM E-score” value amounted to 0.108.

As for AACGTTAG, the “PBM E-score” value was -0.0243.

In the case of CACTCCTA, the “PBM E-score” value was -0.0758.

With ATAAAAAA, the “PBM E-score” value was 0.0403.

CGTGGCGA: the “PBM E-score” value was found to be 0.0619.

For the sequence TCCGCACA, the “PBM E-score” value turned out to be 0.214.

Take CTAAATTC: the “PBM E-score” value worked out at 0.0154.

For CGGTTCAC, the “PBM E-score” value is 0.0329.

Take AAGCGGAT: the “PBM E-score” value was determined as 0.325.

Take AAGACGTA: the “PBM E-score” value was -0.115.

For GACTAAGA, the “PBM E-score” value came out at 0.00477.

As for ATGAGGTA, the “PBM E-score” value is -0.172.

As for AAAAGTAT, the “PBM E-score” value came out at 0.047.

For AAGGAACC, the “PBM E-score” value turned out to be 0.212.

On to ACGGCGTA, for which the “PBM E-score” value was -0.278.
